The other results are listed elsewhere or left out.

This experiment relates to HSkMC (human skeletal muscle cells). Kind of experiment: cytotoxicity call (relative viability < 0.9). The following applies: 10 µM.
Turning to `C[C@@H]1CN([C@H](C)CO)C(=O)c2cc(NC(=O)C3CCCCC3)ccc2O[C@@H](C)CCCCO[C@H]1CN(C)C(=O)CCC(F)(F)F`, the cytotoxicity call was “inactive”.
Take `C=CCOC(=O)[C@H]1[C@@H]2C(=O)O[C@@H](c3ccccc3)[C@@H](c3ccccc3)N2[C@@H](c2ccc(OCCOC(=O)[C@@H]3C[C@@H]4C(=O)N[C@@H](CCCCNC(C)=O)C(=O)N4[C@@H]3c3cccc(OCCO)c3)cc2)[C@]12C(=O)Nc1ccc(I)cc12`: the cytotoxicity call is “inactive”.
For the compound `CO[C@@H]1CN(C)C(=O)c2ccc(NC(=O)Nc3cccc(F)c3)cc2OC[C@@H](C)N(C(=O)Nc2c(C)noc2C)C[C@@H]1C`, the cytotoxicity call was “inactive”.
The same measure for `C[C@@H]1CCCCO[C@H](CN(C)C(=O)Nc2ccccc2)[C@@H](C)CN([C@H](C)CO)C(=O)c2cc(NC(=O)CCC(F)(F)F)ccc2O1`: “inactive”.
Take `Cc1noc(C)c1NC(=O)N(C)C[C@H]1Oc2c(NS(=O)(=O)c3ccccc3)cccc2C(=O)N([C@H](C)CO)C[C@H]1C`: the cytotoxicity call was “inactive”.
Consider `COc1ccc(S(=O)(=O)N(C)C[C@@H]2Oc3c(NS(=O)(=O)c4cccs4)cccc3C(=O)N([C@H](C)CO)C[C@@H]2C)cc1`, for which the cytotoxicity call is “inactive”.
The value for `C[C@@H]1CCCCO[C@H](CN(C)C(=O)C2CCCCC2)[C@@H](C)CN([C@@H](C)CO)C(=O)c2cc(NC(=O)c3ccncc3)ccc2O1` was “inactive”.
The same measure for `CO[C@@H]1CN(C)C(=O)c2cc(NC(=O)Nc3ccc(Cl)cc3)ccc2OC[C@H](C)N(C(=O)Nc2c(C)noc2C)C[C@H]1C`: “inactive”; for `Cc1cc(=O)n(C(N)=S)[nH]1`: “inactive”.
With `C[C@@H](O)[C@H](N)C(=O)O`, the cytotoxicity call was “inactive”.
In the case of `O=C(C[C@H]1C[C@H]2c3cc(NC(=O)NC4CCCC4)ccc3O[C@H]2[C@@H](CO)O1)NCc1ccc2c(c1)OCO2`, the cytotoxicity call was “inactive”.
The same measure for `C[C@H](CO)N1C[C@H](C)[C@@H](CN(C)C(=O)Cc2ccccc2)OCCCC[C@H](C)Oc2ccc(NS(=O)(=O)c3ccc(Cl)cc3)cc2C1=O`: “inactive”.
The value for `C[C@H](CO)N1C[C@H](C)[C@@H](CN(C)Cc2ccc(Oc3ccccc3)cc2)Oc2ccc(NC(=O)c3ccncc3)cc2CC1=O` was “inactive”.
The same measure for `OC[C@H]1O[C@H](O)[C@H](O)[C@@H](O)[C@@H]1O`: “inactive”.
Turning to `CCCNC(=O)N1C[C@H](O)COC[C@H]2O[C@H](CC(=O)N3CCOCC3)CC[C@@H]21`, the cytotoxicity call is “inactive”.
The value for `COC(=O)C1=CO[C@@H](O[C@@H]2O[C@H](CO)[C@@H](O)[C@H](O)[C@H]2O)/C(=C\CO)[C@@H]1CC(=O)OCCc1ccc(O)cc1` was “inactive”; that for `COc1ccc(NC(=O)N(C)C[C@@H]2Oc3ncc(C#C[C@H](C)O)cc3C(=O)N([C@@H](C)CO)C[C@@H]2C)cc1` was “inactive”; that for `Cc1noc(C)c1S(=O)(=O)Nc1cccc2c1O[C@@H](CN(C)Cc1ccc(Oc3ccccc3)cc1)[C@@H](C)CN([C@@H](C)CO)C2=O` was “inactive”.
As for `Cc1ccc(S(=O)(=O)N(C)C[C@H]2OCCCC[C@@H](C)Oc3ccc(NC(=O)Nc4ccccc4)cc3C(=O)N([C@H](C)CO)C[C@@H]2C)cc1`, the cytotoxicity call is “inactive”.
The same measure for `O=C(C[C@H]1C[C@@H]2c3cc(NC(=O)c4ccc5c(c4)OCO5)ccc3O[C@@H]2[C@H](CO)O1)NCC(F)(F)F`: “inactive”; for `C/C=C/c1ccc2c(c1)O[C@@H](CN(C)S(=O)(=O)c1ccc(C)cc1)[C@@H](C)CN([C@H](C)CO)S2(=O)=O`: “inactive”; for `CC(C)(C)NCC(O)COc1ccccc1C1CCCC1.O=S(=O)(O)O` (centres undefined): “inactive”.
The same measure for `C[C@H](CO)N1C[C@H](C)[C@H](CN(C)C(=O)NC2CCCCC2)OCCCC[C@H](C)Oc2ccc(NC(=O)c3ccccc3)cc2C1=O`: “inactive”; for `C[C@H](O)C#Cc1cnc2c(c1)C(=O)N([C@H](C)CO)C[C@@H](C)[C@H](CN(C)C(=O)Nc1ccc(C(F)(F)F)cc1)O2`: “inactive”.
The same measure for `C[C@H](O)C#Cc1ccc2c(c1)O[C@@H](CN(C)C(=O)Cc1ccccn1)[C@@H](C)CN([C@H](C)CO)S2(=O)=O`: “inactive”.
Turning to `CC(=O)N1CCNCC1`, the cytotoxicity call was “inactive”.
As for `COc1ccc2c3c([nH]c2c1)[C@H](CO)N(C[C@]13CCN(CC1)C(=O)NC(C)C)C(=O)CN1CCOCC1`, the cytotoxicity call was “inactive”.
The same measure for `C[C@@H]1CN([C@@H](C)CO)C(=O)c2cc(NC(=O)c3ccncc3)ccc2O[C@@H]1CN(C)Cc1ccncc1`: “inactive”; for `C[C@@H]1CN([C@@H](C)CO)C(=O)c2cc(NS(=O)(=O)c3ccccc3)ccc2O[C@H]1CN(C)C(=O)Nc1cccc2ccccc12`: “inactive”.
